# Assay results from PubChem BioAssay AID2546 (National Center for Advancing Translational Sciences (NCATS), 2010).
# In all, about 310,000 compounds went through this assay and about 11,000 (3.5%) were called active. The inconclusive results got no clear call from the source; some entries with a clear call stand among them for comparison. The call rests on the fitted dose curve; in most records, active means well fitted inhibition curve with a large enough effect; inconclusive means small, poorly fitted or top-dose-only effect, or effect the other way; inactive means flat fitted curve, though single readings scatter. No potency is given beside an inconclusive call; the fits are too rough.
# Test: VP16 counterscreen qHTS for inhibitors of ROR gamma transcriptional activity;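 further: Gal4-VP16 expression switched on by copper sulfate through the metallothionein promoter; nearly all actives have a fitted effect of over 50% in size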
# Conditions: Drosophila S2 Gal4-VP16 UAS-luciferase, luminescence, 20 h; activity, negative = inhibition: at 53.6 µM (top of the series)
# On the % scale 0 is the no-effect control and ±100 the full control effect; potency means the concentration at half of the fitted maximal effect; tags describe the fitted curve by direction and shape.
SMILES,"activity, negative = inhibition",Potency
C=CCCC(=O)Nc1nc(C)c(-c2csc(Nc3ccccc3OC)n2)s1,inactive: -9.75%,–
Cn1c(Cn2nnc3ccccc32)nnc1SCC(=O)N1c2ccccc2Sc2ccccc21,–,"inconclusive [inhibitor, single point]"
CCCCNC(=O)O[C@H]1C[C@@H]2CCN3C(=O)CCC[C@H]([C@H]1CC)[C@H]23,–,"inconclusive [inhibitor, single point]"
CCOC(=O)C1CCN(C(=O)C(C)N(c2ccc(Oc3ccccc3)cc2)S(C)(=O)=O)CC1 (stereo not given),–,active: 20 µM
CN(Cc1nccs1)C(=O)c1cc(COc2cccc3cnccc23)on1,–,active: 12.6 µM
O=C(CCc1ccccc1F)N1CCN(c2ccccc2)CC1,–,"inconclusive [activator, single point]"
COc1ccc(C(=O)N2CCN(C(=O)Cc3ccccc3)CC2)cc1,inactive: -12.5%,–
COc1ccccc1N(CC(=O)NCCSCc1ccccc1)S(=O)(=O)c1ccc(C)cc1,–,"inconclusive [inhibitor, single point]"
COc1cccc(OCCNC(=O)c2ccc(C)cc2)c1,–,"inconclusive [activator, partial curve]"
CC(=O)N1N=C(c2ccc(C)cc2)OC1c1cccnc1 (stereo not given),–,"inconclusive [activator, full curve, poor fit]"
Cc1cccc(C)c1NC(=O)C1c2cccc[n+]2CC(=O)N1Cc1cccs1 (stereo not given),inactive: 0.369%,–
CCOc1ccccc1CNC(=O)Cn1ccc2cc(S(=O)(=O)N3CCCC3)ccc21,inactive: 13.9%,–
CCOC(=O)CNC(=O)C1CCCN(c2ncccn2)C1 (stereo not given),inactive: -3.82%,–
S=C(NC1CCCC1)NC1CCCC1,–,"inconclusive [inhibitor, single point]"
CC[C@H]1C(c2cccc(Cl)c2)=NN(c2ccccc2)[C@@H]1CO,–,active: 31.6 µM
COc1ccc(/C=C/C(=O)Nc2ccccc2C(F)(F)F)cc1OC,inactive: -5.27%,–
CCOc1cc(NC(=S)Nc2cccc(OC)c2)c(OCC)cc1NC(=O)C1CC1,–,"inconclusive [inhibitor, single point]"
Cc1cc(NC(=O)c2cccc3c2C(=O)N(C2CCCCC2)C3)ccc1Br,–,"inconclusive [inhibitor, single point]"
Cc1ccccc1-c1nc(CN2CCC(C(=O)NC3CC3)CC2)c(C)o1,inactive: 3.05%,–
CC1=NN(C(=O)CSCc2ccccc2)C(O)(c2ccc(Cl)cc2)C1 (stereo not given),–,"inconclusive [inhibitor, single point]"
CN(C)S(=O)(=O)c1ccc(Cl)c(C(=O)Nc2nc3ccccc3[nH]2)c1,–,"inconclusive [inhibitor, single point]"
CCc1cccc(N(C(=O)c2csnn2)C(C(=O)NC(C)(C)C)c2ccncc2)c1 (stereo not given),inactive: -1.32%,–
CN(C)c1ccc(Nc2nc(-c3cccnc3)cs2)cc1,–,"inconclusive [inhibitor, single point]"
O=C(Nc1ccc2c(c1)OCCO2)c1cccc(Br)c1,inactive: -4.31%,–
C[C@H](CCC(=O)O)[C@H]1CC[C@@H]2[C@H]3[C@@H](CC[C@@]21C)[C@]1(C)CC[C@H](O)C[C@@H]1C[C@@H]3O,inactive: -6.77% [at 17 µM],–

SMILES,"activity, negative = inhibition",Potency
CC1=CN2C(=N)/C(=C/c3ccc(Sc4ccc(Cl)cc4)o3)C(=O)N=C2S1,–,active: 4.47 µM
CCc1ccc(C2NC(=S)NC3=C2C(=O)CCC3)cc1 (stereo not given),–,"inconclusive [inhibitor, single point]"
S=c1[nH]nc(C2CCCCC2)n1/N=C/C(Cl)=C\c1ccccc1,–,active: 5.62 µM
O=C(CSc1nnc(CNc2ccc(Cl)cc2)o1)Nc1nc2c(s1)CCCC2,–,"inconclusive [inhibitor, single point]"
O=S(=O)(c1ccc(F)cc1)N1CCC(O)(c2ccc3c(c2)OCO3)CC1,–,"inconclusive [inhibitor, single point]"
COC(=O)c1ccc(CSc2cc(C)c3ccccc3n2)o1,–,"inconclusive [inhibitor, single point]"
COC(=O)c1ccccc1NC(=O)Cc1nc(-c2ccccc2)sc1-c1ccc(C)cc1,–,"inconclusive [inhibitor, single point]"
COc1ccc(C(=O)Nc2ccccc2C(=O)N/N=C/c2ccccc2OC)cc1,–,active: 12.6 µM
S=c1nc(NCCc2ccccc2Cl)c2ccccc2[nH]1,–,active: 6.31 µM
CCCCCNC(=O)c1cc(S(=O)(=O)N2CCCC2)ccc1F,inactive: -1.79%,–
COc1ccc(OCCSc2nc(N)cc(=O)[nH]2)cc1,–,"inconclusive [inhibitor, partial curve, poor fit]"
CC(C)(C)n1ncc2c(=O)n(Cc3ccc(Cl)cc3Cl)cnc21,–,"inconclusive [inhibitor, single point]"
O=C(O)CCCCCN1C(=O)/C(=C\c2ccncc2)SC1=S,–,active: 10 µM
O=C(Nc1ccc(NC(=O)C2CCCCC2)cn1)c1ccco1,–,active: 8.91 µM
NC(=O)c1ccc(C(F)(F)F)n(Cc2ccc(Cl)cc2)c1=O,–,"inconclusive [inhibitor, single point]"
O=C(CCl)c1cc2c3c(c1)CC(=O)N3CCC2,–,active: 3.55 µM
CCOc1ccc(NC(=O)CSc2nccn2Cc2ccco2)cc1,–,"inconclusive [activator, partial curve]"
COC(=O)c1[nH]c2ccc(Br)cc2c1NC(=O)C(C)N1CCN(C2CCCCC2)CC1 (stereo not given),–,"inconclusive [inhibitor, single point]"
CC1=NN(C(=O)COc2ccccc2)C(O)(c2ccccc2)C1 (stereo not given),–,active: 10 µM
CCOC(=O)C1CCCN(C(=S)NC(=O)/C=C/c2ccc(F)cc2)C1 (stereo not given),–,active: 7.08 µM
OC(COc1ccc(Cl)cc1)CSc1ccccn1 (stereo not given),–,"inconclusive [activator, single point]"
O=C(CCCOc1ccccc1)Nc1ccncc1,–,"inconclusive [inhibitor, single point]"
COc1cccc2cc(-c3ccnc(=S)[nH]3)oc12,–,"inconclusive [inhibitor, single point]"
COc1cc2c(cc1NC(=O)CSc1nnc(Cc3cccs3)n1Cc1ccco1)oc1ccccc12,inactive: -4.47%,–
COc1ccc2c(c1)-c1nc(/N=C/c3c(O)ccc4ccccc34)sc1CC2,–,"inconclusive [inhibitor, single point]"

SMILES,"activity, negative = inhibition",Potency
Cc1cc(OCc2cc(C(=O)N(C)Cc3ccccn3)no2)cc(C)c1Cl,–,"inconclusive [activator, partial curve]"
Cc1ccc2c(c1)N(CC(=O)NCCc1ccccc1)C(=O)c1cccnc1O2,–,"inconclusive [inhibitor, single point]"
Cc1ccc(S(=O)(=O)NCC(c2cccnc2)N2CCc3ccccc32)cc1 (stereo not given),inactive: 0.732%,–
CCOC(=O)c1ccc(S(=O)(=O)N2CCN(c3ccccn3)CC2)cc1,inactive: -0.0404%,–
Cc1ccc2c(N)c(C)ccc2c1,–,"inconclusive [inhibitor, single point]"
CC(C)(C)NC(=O)NC(=O)CN1CCN(c2ccc(O)cc2)CC1,–,"inconclusive [inhibitor, single point]"
CN(c1cccc(Cl)c1)S(=O)(=O)c1cccc(C(=O)Nc2nc3ccccc3[nH]2)c1,–,active: 3.55 µM
COc1cc2c(cc1NC(=O)CSCC(=O)O)oc1ccccc12,–,"inconclusive [inhibitor, single point]"
NS(=O)(=O)c1ccc(CCNC(=O)C2CCCO2)cc1 (stereo not given),inactive: -7.61%,–
CCC(C)NC(=S)N1CCN(C(c2ccccc2)c2ccccc2)CC1 (stereo not given),–,"inconclusive [inhibitor, single point]"
NS(=O)(=O)c1ccc(NC(=O)CSc2ccccc2)cc1,–,"inconclusive [activator, single point]"
O=C(Nc1ccc(S(=O)(=O)N2CCCC2)cc1)c1ccc([N+](=O)[O-])cc1,inactive: 4.33%,–
Cc1[nH]c(/C=C2/C(=O)Nc3ccc(S(=O)(=O)Cc4c(Cl)cccc4Cl)cc32)c(C)c1C(=O)N1CCCC1CN1CCCC1 (stereo not given),–,"inconclusive [inhibitor, single point]"
Cc1cc(-c2n[nH]c(=S)n2/N=C/c2sccc2C)n[nH]1,–,"inconclusive [activator, single point]"
CCCCCCCCCCCCN1C(=O)CSC1c1cccnc1 (stereo not given),–,"inconclusive [inhibitor, single point]"
Cn1c(CN2CCN(c3cccc(Cl)c3)CC2)nc2ccccc21,–,"inconclusive [inhibitor, single point]"
COCCNC(=S)N1CCc2cc(OC)c(OC)cc2C1COc1ccc(F)cc1 (stereo not given),inactive: -0.595%,–
N=C(c1cccc([N+](=O)[O-])c1)N1CCCCC1,inactive: -0.68%,–
Fc1ccc(NCc2nnc(SCc3ccccc3)o2)cc1,inactive: 5.1%,–
C#CCn1c(=NC(=O)c2ccc(S(=O)(=O)N3CCc4ccccc4C3)cc2)sc2cc(S(N)(=O)=O)ccc21,–,active: 10 µM
C=CCSc1nc2sc3c(c2c(=O)n1CC=C)CCc1ccccc1-3,inactive: -0.838%,–
c1ccc(CN2CCN(Cc3c[nH]c4ccccc34)CC2)cc1,inactive: -5.4%,–
CCOC(=O)c1c(-c2ccc(F)cc2)csc1NC(=O)c1c(-c2ccccc2)noc1C,–,"inconclusive [inhibitor, single point]"
COc1cccc(CN(C)C(=O)C23CC4CC(CC(NC(C)=O)(C4)C2)C3)c1OC,inactive: -5.81%,–
CN(C)c1ccc(C(=O)/C=C/c2ccccc2)cc1,–,"inconclusive [inhibitor, single point]"
